From PubChem BioAssay (NCATS)
Values joined by “and” are separate entries in the source; they are usually repeats but may differ in a detail not shown here. Equal entries are not always repeated. The shares of active, inactive and inconclusive entries below differ from those in the screen. Potencies beside an inconclusive call are fits to weak or partial responses and may not hold up. Active and inactive are the calls of the source. Calls come from the whole dose curve; as a rule, active = well fitted curve in the direction sought with a large enough effect; inconclusive = small, poorly fitted or top-dose-only effect, or another doubt; inactive = no such curve, though single readings can be large; an effect the other way counts as inactive or inconclusive.

Tests used:
[1] = qHTS of pediatric cancer cell lines to identify multiple opportunities for drug repurposing: Primary screen for SJ-GBM2 cells (AID 1347091)
In short: (§1)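 Viability measured as metabolically active cells via CellTiter-Glo luminescence following 48 hours of compound exposure, 11-point dilutions in confirmatory testing. 500-1,000 cells/well plated 5 hours before dosing; controls were DMSO and 2.3 µM bortezomib.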

[2] = qHTS of pediatric cancer cell lines to identify multiple opportunities for drug repurposing: Primary screen for DAOY cells (AID 1347090); note: nearly all actives have a fitted effect of over 55% in size
In short: as §1

[3] = qHTS of pediatric cancer cell lines to identify multiple opportunities for drug repurposing: Primary screen for NB-EBc1 cells (AID 1347095)
In short: (§2)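 Following a 5-hour attachment period, cells at 500-1,000/well received compounds and were cultured for 48 hours. CellTiter-Glo was added and luminescence read to estimate viable, metabolically active cells.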

[4] = qHTS of pediatric cancer cell lines to identify multiple opportunities for drug repurposing: Primary screen for A673 cells (AID 1347092); settings: A673 Ewing sarcoma viability, CellTiter-Glo ATP luminescence, 48 h; activity change, negative = cytotoxic: at 46 µM (top of the series); note: nearly all actives have a fitted effect of over 45% in size
In short: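 Cells are plated, rested 5 h, dosed by pintool, incubated 48 h, then lysed with CellTiter-Glo and read by luminescence. DMSO is the neutral control; bortezomib at 2.3 uM final is the positive control.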

[5] = qHTS of pediatric cancer cell lines to identify multiple opportunities for drug repurposing: Primary screen for SK-N-MC cells (AID 1347093); settings: SK-N-MC viability, CellTiter-Glo luminescence, 48 h; activity change, negative = cytotoxic: at 46 µM (top of the series)
In short: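 Metabolically active cells were quantified by ATP-dependent luminescence (CellTiter-Glo, 15 min at room temperature) following 48 h treatment. Cells had been plated at 500-1,000 per well and settled for 5 h beforehand.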

[6] = qHTS of pediatric cancer cell lines to identify multiple opportunities for drug repurposing: Primary screen for BT-37 cells (AID 1347094)
In short: as §2

[7] = qHTS of pediatric cancer cell lines to identify multiple opportunities for drug repurposing: Primary screen for U-2 OS cells (AID 1347096); note: nearly all actives have a fitted effect of over 50% in size
In short: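 Viability after 48 h compound treatment at 37C, 500-1,000 cells/well, read as ATP luminescence with CellTiter-Glo. Primary screens used 11-point (MIPE, 0.78 nM-46 µM) or 8-point (NPC, 0.59 nM-46 µM) final concentrations; follow-up screens used 11-point dilutions.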
Potency is the fitted concentration of half-maximal effect; tags give direction and shape of the fitted curve.

C[C@]12C=CC(=O)C=C1CC[C@H]1[C@@H]3C[C@@H](O)[C@](O)(C(=O)CO)[C@@]3(C)C[C@H](O)[C@@]12F
Potency [1]: inactive

CCCC(=O)O[C@]1(C(=O)CO)CC[C@H]2[C@@H]3CCC4=CC(=O)CC[C@]4(C)[C@H]3[C@@H](O)C[C@@]21C
Potency [2]: inconclusive: 0.531 µM [cytotoxic, full curve, poor fit]
Potency [3]: inactive

CN1CCCC(n2nc(Cc3ccc(Cl)cc3)c3ccccc3c2=O)CC1 (stereo not drawn)
Potency [1]: inconclusive: 26.6 µM [cytotoxic, single point]
Potency [4]: inconclusive: 26.6 µM [cytotoxic, single point] and active: 935 nM
Potency [5]: inconclusive: 23.7 µM [cytotoxic, single point] and active: 833 nM
Potency [6]: inconclusive: 21.9 µM [cytotoxic, partial curve] and active: 2.43 µM
Potency [3]: inconclusive: 16.8 µM [cytotoxic, single point] and active: 1.18 µM
Potency [7]: inconclusive: 13.3 µM [cytotoxic, partial curve, poor fit] and active: 9.35 µM

CCOC(=O)C1=C(C)NC2=C(C(=O)CC(C)(C)C2)C1c1ccc(-c2ccccc2)cc1 (stereo not drawn)
Potency [2]: inconclusive: 18.7 µM [cytotoxic, partial curve]
Potency [7]: inconclusive: 1870 nM [cytotoxic, full curve, poor fit]

Oc1cccc(-c2nc(N3CCOCC3)c3oc4ncccc4c3n2)c1
Potency [2]: active: 2.15 µM
Potency [7]: inconclusive: 429 nM [cytotoxic, full curve]

COc1cccc(OC)c1-c1cc(C(=O)NC2(C(=O)O)C3CC4CC(C3)CC2C4)nn1-c1ccnc2cc(Cl)ccc12 (stereo not drawn)
Potency [2]: inactive
Potency [3]: inconclusive: 29.6 µM [cytotoxic, single point]

Clc1ccc(Nc2nnc(Cc3ccncc3)c3ccccc23)cc1
Potency [1]: inconclusive: 26.6 µM [cytotoxic, single point]
Potency [5]: inconclusive: 33.5 µM [cytotoxic, single point]
Potency [6]: inconclusive: 24.3 µM [cytotoxic, partial curve] and inconclusive: 34.7 µM [cytotoxic, single point]
Potency [3]: inconclusive: 26.4 µM [cytotoxic, single point]
Potency [7]: inactive

CCC[C@H](Nc1nc(-c2ccc(NC(=O)NCC)c(OC)c2)ncc1C)c1cccnc1
Potency [2]: inconclusive: 0.0047 µM [cytotoxic, full curve]
Potency [6]: active: 13.7 nM
Potency [7]: inconclusive: 14.8 nM [cytotoxic, full curve]

CCC(=O)c1c(O)cc(O)cc1O
Potency [1]: inactive

COc1cccc(CCc2ccccc2OCC(CN(C)C)OC(=O)CCC(=O)O)c1 (stereo not drawn)
Potency [1]: inconclusive: 16.8 µM [cytotoxic, single point]
Potency [4]: inconclusive: 26.6 µM [cytotoxic, single point]
Potency [5]: inconclusive: 29.9 µM [cytotoxic, single point]
Potency [6]: inactive

CC(C)(C)NC(=O)[C@H]1CC[C@H]2[C@@H]3CC[C@H]4NC(=O)C=C[C@]4(C)[C@H]3CC[C@]12C
Potency [1]: inconclusive: 16.8 µM [cytotoxic, partial curve, poor fit]

CN(C)CC/C=C1\c2ccccc2Sc2ccc(Cl)cc21
Potency [1]: inconclusive: 26.6 µM [cytotoxic, single point]
Potency [4]: inconclusive: 33.5 µM [cytotoxic, single point]
Potency [5]: inconclusive: 29.9 µM [cytotoxic, single point]
Potency [6]: inconclusive: 30900 nM [cytotoxic, single point]
Potency [3]: inconclusive: 21.1 µM [cytotoxic, single point]

COc1ccc(-c2cc(C(F)F)nn2-c2ccc(S(N)(=O)=O)cc2)cc1F
Potency [2]: inactive
Potency [3]: inactive

OC[C@@H](O)[C@H](O)[C@H](O)[C@@H](O)CO
Potency [4]: inactive

O=C1OCCN1/N=C/c1ccc([N+](=O)[O-])o1
Potency [4]: inconclusive: 33.5 µM [cytotoxic, single point]

CCCCCCCN(CC)CCCC(O)c1ccc(NS(C)(=O)=O)cc1 (stereo not drawn)
Potency [1]: inconclusive: 37.2 µM [cytotoxic, single point]
Potency [6]: inactive
Potency [3]: inconclusive: 37.2 µM [cytotoxic, single point]

Cc1cc(NC(=O)Nc2ccc(N(C)C)cc2)c2cc(F)cc(F)c2n1
Potency [1]: inconclusive: 29.6 µM [cytotoxic, single point]
Potency [3]: inconclusive: 18.7 µM [cytotoxic, partial curve]
